According to ChEMBL document CHEMBL4888484, “Replenishing the malaria drug discovery pipeline: Screening and hit evaluation of the MMV Hit Generation Library 1 (HGL1) against asexual blood stage Plasmodium falciparum ,using a nano luciferase reporter read-out” (2022):
Among all 150,000 compounds or so, about 540 (0.36%) showed an effect of 50% or more. This is one part of the list.

The molecules below were run on Plasmodium falciparum (assay: Primary screen in NF54 nanoGlo assay, in single point, at 2uM, 72h; a lower Z score goes with more inhibition). Details: timepoint 72 hour.
Assay type: functional, Erythrocyte

| Compound | % Inhibition [%] | Z score |
| --- | --- | --- |
| CC(F)(F)c1ccccc1NC(=O)N1CCC2CCC(C1)S2(=O)=O (stereo not given) | -3 | 0.56 |
| Cc1cccc(CN2C(=O)c3ccc(-c4ccccc4)n3C[C@@]2(C)C(=O)NC2CCCC2)c1 | 6 | -1.15 |
| C[C@@](O)(C(=O)NCc1c(F)cccc1OC(F)F)C1CCOCC1 | -3 | 0.37 |
| COc1cccn(CC(=O)N(C)Cc2cc(C)nn2C)c1=O | 1 | -0.14 |
| Cn1ncn(CC(=O)c2cccc(Cl)c2Cl)c1=O | 32 | -4.63 |
| CC(=O)N[C@@H]1CN(Cc2nccn2Cc2ccccc2)C[C@H]1c1nccn1C | 30 | -1.12 |
| CN(C)CCNC(=O)NCCc1ccc(F)c(F)c1 | 11 | -2.15 |
| Cc1ccc(-c2nc(=O)n(CC(=O)N3CCOCC3)c3sc(C)nc23)cc1 | -22 | 2.53 |
| CCOc1ncccc1NC(=O)N(C)C1CC1 | -5 | 0.68 |
| CCNC(=O)N(C)c1cccc(NC(=O)N(C)CC2=CCCOC2)c1 | 2 | -0.2 |
| COc1cccc(CCNc2nccn3nnnc23)n1 | 15 | -1.74 |
| O=C(CCc1ccccc1)N[C@@H](c1ccccc1)c1ccc2c3c(cccc13)CC2 | 38 | -4.27 |
| Cc1ccccc1-c1cc(C(=O)O)cc(S(=O)(=O)N2CCOCC2)c1 | 3 | -0.57 |
| CN(C)CCCCN(C)S(=O)(=O)CC1CCCCC1 | 6 | -0.77 |
| CC(C)[C@H](N)C(=O)NC[C@H]1CC[C@H](C(=O)N[C@H](C(=O)O)C(C)C)CC1 | -14 | 1.57 |
| COc1cnccc1C(C)NC(=O)NC1C2CCOC2C12CCC2 (stereo not given) | -14 | 2.25 |
| CCc1nc(-c2cc(S(=O)(=O)Nc3cc(C)ccc3F)c(C)s2)cs1 | -3 | 0.36 |
| N#Cc1cccnc1NC[C@@H](c1ccccc1Cl)N1CCOCC1 | -12 | 1.04 |
| Cc1ccc2snc(C(=O)N[C@H](c3cnn(C)c3)C(C)C)c2c1 | 20 | -3.7 |
| Cc1nc(-c2nnc[nH]2)sc1C(=O)NC1CC1c1ccccc1Cl (stereo not given) | -2 | 0.24 |
| CC(C)(C)C(=O)N1CCC(Cn2nnc(-c3ccco3)n2)CC1 | 0 | 0.02 |
| CCCN(C)C(=O)[C@H](C1CCCC1)N1CCN(C(=O)CC(C)(C)C)CC1 | -5 | 1.08 |
| CCC(NC(=O)C(c1ccncc1)C1CCCC1)C(O)C(C)C (stereo not given) | 17 | -1.97 |
| Cc1cc(C)nc(N2CCN(c3cc(=O)[nH]c(=O)[nH]3)CC2)n1 | -1 | 0.1 |
| O=C(CN1CCN(CC2CC2)[C@@H](CCO)C1)NC1CCCCCCC1 | -10 | 1.23 |
| Cc1ccc(CN(CCC#N)CCC#N)cc1C | 0 | -0.04 |
| COc1cc(-c2c(-c3ccccc3)ncn2[C@@H](C)c2cnn(C)c2)ccc1F | -4 | 0.8 |
| c1cn2cnnc2c(N2CCN(Cc3ccc4c(c3)CCO4)CC2)n1 | -5 | 0.67 |

| Compound | % Inhibition [%] | Z score |
| --- | --- | --- |
| CCCn1nc(C(=O)N2CCCN(C[C@H]3CCCO3)CC2)ccc1=O | -13 | 1.91 |
| CCOC(=O)[C@@H](NCc1ccc(OC)cc1)C(C)C | 1 | -0.16 |
| CCn1c(=O)c(-c2noc(C(=O)NCc3ccc4c(c3)OCO4)n2)nn(-c2ccccc2)c1=O | 2 | -0.37 |
| Nc1snnc1-c1nc(C2CC2)cs1 | 28 | -3.13 |
| CS(=O)(=O)CCC(=O)N(Cc1cnn(-c2ccccc2)c1)C1CC1 | 2 | -0.48 |
| CCN(CC)C(=O)N1CCN(Cc2csc(NC(C)=O)n2)CC1 | -5 | 0.95 |
| Cn1ccc([C@H](NC(=O)C2CCOCC2)c2ccc(Cl)cc2)n1 | -10 | 1.02 |
| Cc1cccc(Cn2nc(CC(N)=O)nc2-c2cc(C)oc2C)c1 | 4 | -0.77 |
| CN(C(=O)OC(C)(C)C)[C@H]1CCCN(C(=O)C(C)(C)C)C1 | 11 | -1.15 |
| CCCNC(=O)Cn1ccc(Br)cc1=O | -7 | 1.11 |
| CN1CCN(CCCNc2ncnc3onc(-c4cc(F)cc(F)c4)c23)CC1 | 6 | -1.07 |
| CCOC(=O)Nc1scnc1C(=O)NCCn1cc(C)cn1 | -8 | 1.34 |
| Cc1c([C@@H](NC(=O)N2CCNC(=O)CC2)C(C)C)oc2ccccc12 | -13 | 2.48 |
| CC1(C)CN(C(=O)CCC2CC2)CC[C@]1(C)O | -10 | 0.87 |
| N#CC[C@H]1CCCN(C(=O)c2cc3c(o2)CCCC3)C1 | -9 | 1.23 |
| N#Cc1ccc(C(=O)NCCc2csc(-c3ccccc3)n2)nc1 | 31 | -3.52 |
| Cc1cnc(CCNC(=O)NC(C)(C)C)n1C1CCCCCCC1 | 4 | -0.58 |
| O=C(OCc1nnnn1-c1ccccc1)c1cccnc1Nc1ccccc1F | -9 | 1.28 |
| O=C(Nc1cnc(-n2cccn2)nc1)c1cccc2ccccc12 | -10 | 1.63 |
| Cc1c(C(=O)Nc2cccc(-c3nnco3)c2)cnn1C | -12 | 1.37 |
| Cc1ccc(CN2CCCn3nc(C(=O)NC4CCN(Cc5ccccc5)CC4)cc3C2=O)cc1 | -9 | 1.1 |
| CCc1nc2c(-c3ccncc3)nsc2c(=O)n1CC(=O)Nc1cccc(Cl)c1 | -16 | 2.51 |
| Cn1cc(CN(Cc2ccc(Cl)cc2)Cc2ccc3cn[nH]c3c2)cn1 | -17 | 1.66 |
| COC(=O)c1ccc(NCCOc2c(C)cccc2C)nn1 | -5 | 0.67 |
| Nc1nc2ccc(S(=O)(=O)N3CCCC3)cc2s1 | -5 | 0.52 |
| O=C(c1ccccc1)N1CCc2nc(N3CCc4ccccc4C3)nc(Oc3cccc(F)c3)c2C1 | -11 | 1.38 |
| CC(=O)c1ccc(F)c(-c2ccc(C(=O)N[C@H]3CCCNC3=O)cc2)c1 | 2 | -0.36 |
